T1: RBFOX1 RRM RbFoxmut (Fox-RRM*) (Homo sapiens, UniProt Q9NWB1 109-208, R118D;E147R;N151S;E152T)
T1 sequence: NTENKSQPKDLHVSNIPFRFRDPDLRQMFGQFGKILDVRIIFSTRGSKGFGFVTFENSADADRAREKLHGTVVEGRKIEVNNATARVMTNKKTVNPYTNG

B1: ACUAAGA (DNA:RNA)
RNA: GGGAGACCGGAAUUCAGAUUGUCCACUAAGAUUAAAUCCCGUCGUAGCCACCA
DNA 1: CAATCTGAATTCCGGTCTCCC
DNA 2: TGGTGGCTACGACGGGATT
B2: CUCGGAU (DNA:RNA)
RNA: GGGAGACCGGAAUUCAGAUUGUCCCUCGGAUUUAAAUCCCGUCGUAGCCACCA
DNA 1: CAATCTGAATTCCGGTCTCCC
DNA 2: TGGTGGCTACGACGGGATT
B3: UGUAGCC (DNA:RNA)
RNA: B1 RNA with A25U, C26G, A29G, G30C, A31C
DNA 1: CAATCTGAATTCCGGTCTCCC
DNA 2: TGGTGGCTACGACGGGATT
B4: UGCAAAA (DNA:RNA)
RNA: B1 RNA with A25U, C26G, U27C, G30A
DNA 1: CAATCTGAATTCCGGTCTCCC
DNA 2: TGGTGGCTACGACGGGATT
B5: AAGACAG (DNA:RNA)
RNA: B1 RNA with C26A, U27G, A29C, G30A, A31G
DNA 1: CAATCTGAATTCCGGTCTCCC
DNA 2: TGGTGGCTACGACGGGATT
B6: GUAGAGG (DNA:RNA)
RNA: B1 RNA with A25G, C26U, U27A, A28G, A31G
DNA 1: CAATCTGAATTCCGGTCTCCC
DNA 2: TGGTGGCTACGACGGGATT
B7: UUAAACA (DNA:RNA)
RNA: B1 RNA with A25U, C26U, U27A, G30C
DNA 1: CAATCTGAATTCCGGTCTCCC
DNA 2: TGGTGGCTACGACGGGATT
B8: UAUACCU (DNA:RNA)
RNA: B1 RNA with A25U, C26A, A29C, G30C, A31U
DNA 1: CAATCTGAATTCCGGTCTCCC
DNA 2: TGGTGGCTACGACGGGATT
B9: GCCGUAU (DNA:RNA)
RNA: B2 RNA with C25G, U26C, G29U
DNA 1: CAATCTGAATTCCGGTCTCCC
DNA 2: TGGTGGCTACGACGGGATT
B10: CCAGGGG (DNA:RNA)
RNA: B2 RNA with U26C, C27A, A30G, U31G
DNA 1: CAATCTGAATTCCGGTCTCCC
DNA 2: TGGTGGCTACGACGGGATT
B11: GUGAGCU (DNA:RNA)
RNA: B2 RNA with C25G, C27G, G28A, A30C
DNA 1: CAATCTGAATTCCGGTCTCCC
DNA 2: TGGTGGCTACGACGGGATT
B12: CAUACGU (DNA:RNA)
RNA: B1 RNA with A25C, C26A, A29C, A31U
DNA 1: CAATCTGAATTCCGGTCTCCC
DNA 2: TGGTGGCTACGACGGGATT
B13: CAGCCAU (DNA:RNA)
RNA: B2 RNA with U26A, C27G, G28C, G29C
DNA 1: CAATCTGAATTCCGGTCTCCC
DNA 2: TGGTGGCTACGACGGGATT
B14: ACCUCGG (DNA:RNA)
RNA: B1 RNA with U27C, A28U, A29C, A31G
DNA 1: CAATCTGAATTCCGGTCTCCC
DNA 2: TGGTGGCTACGACGGGATT
B15: AAUAAUG (DNA:RNA)
RNA: B1 RNA with C26A, G30U, A31G
DNA 1: CAATCTGAATTCCGGTCTCCC
DNA 2: TGGTGGCTACGACGGGATT
B16: CCUAGCU (DNA:RNA)
RNA: B1 RNA with A25C, A29G, G30C, A31U
DNA 1: CAATCTGAATTCCGGTCTCCC
DNA 2: TGGTGGCTACGACGGGATT
B17: ACCACGU (DNA:RNA)
RNA: B1 RNA with U27C, A29C, A31U
DNA 1: CAATCTGAATTCCGGTCTCCC
DNA 2: TGGTGGCTACGACGGGATT
B18: UUGUGGU (DNA:RNA)
RNA: B2 RNA with C25U, C27G, G28U, A30G
DNA 1: CAATCTGAATTCCGGTCTCCC
DNA 2: TGGTGGCTACGACGGGATT
B19: GAAAAUU (DNA:RNA)
RNA: B1 RNA with A25G, C26A, U27A, G30U, A31U
DNA 1: CAATCTGAATTCCGGTCTCCC
DNA 2: TGGTGGCTACGACGGGATT
B20: ACUGUUU (DNA:RNA)
RNA: B1 RNA with A28G, A29U, G30U, A31U
DNA 1: CAATCTGAATTCCGGTCTCCC
DNA 2: TGGTGGCTACGACGGGATT

Positions count from the first letter of the chain named. The list shows a part of the results.

The target of the experiment is T1, RBFOX1 RRM RbFoxmut (Fox-RRM*). In words: EMSA; HiTS-Eq, 1 nM pool, 10 min; buffer printed only for the single-RNA assays: 10 mM Tris pH 7.5, 150 mM NaCl, 3.4 mM EDTA, 0.001% NP-40, 30 C. Particulars: tags: His6 N-terminal (pET28a); label: 5' 32P. The essentials: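 Purified RbFox RRM (wild type or mutant) was equilibrated for 10 min in 50 µL with 1 nM of a 5′-radiolabelled pool of RNA with 7 randomized nucleotides, its flanks annealed to DNA oligonucleotides, across increasing protein concentrations. Free RNA was separated by 8% native PAGE, excised, reverse-transcribed, PCR-barcoded and sequenced on an Illumina HiSeq 2500. Relative association constants came from read-count changes of each variant against the control reaction, normalised to the cognate motif.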
Consider B1, for which the binding signal is 0.13 KA relative to UGCAUGU. As for B2, the binding signal was 0.0754 KA relative to UGCAUGU. For B3 the value was 0.141 KA relative to UGCAUGU. For B4 the value was 0.102 KA relative to UGCAUGU; for B5, 0.0689 KA relative to UGCAUGU; for B6, 0.0906 KA relative to UGCAUGU. Then B7, with 0.0699 KA relative to UGCAUGU. With B8, the binding signal is 0.0911 KA relative to UGCAUGU. With B9, the binding signal is 0.113 KA relative to UGCAUGU. For B10 the value was 0.0555 KA relative to UGCAUGU.

As for B11, the binding signal was 0.13 KA relative to UGCAUGU. For B12 the value was 0.114 KA relative to UGCAUGU.

As for B13, the binding signal is 0.0919 KA relative to UGCAUGU. Then B14, with 0.0686 KA relative to UGCAUGU. As to B15, the binding signal is 0.0923 KA relative to UGCAUGU. In the case of B16, the binding signal is 0.111 KA relative to UGCAUGU. Then B17, with 0.105 KA relative to UGCAUGU; and B18, with 0.164 KA relative to UGCAUGU. Then B19, with 0.0686 KA relative to UGCAUGU; and B20, with 0.11 KA relative to UGCAUGU.

The record behind these values is PMC9911399, “Two distinct binding modes provide the RNA-binding protein RbFox with extraordinary sequence specificity”.
